Data from the supplement of paper PMC12217912.
The list shows a part of the results. Sequences were assembled here from the parent chain. Inactive controls read about 0.05.

B1: TEV protease; numbered along this chain (parent)
chain: MGESLFKGPRDYNPISSSICHLTNESDGHTTSLYGIGFGPFIITNKHLFRRNNGTLVVQSLHGVFKVKDTTTLQQHLVDGRDMIIIRMPKDFPPFPQKLKFREPQREERICLVTTNFQTKSMSSMVSDTSCTFPSGDGIFWKHWIQTKDGQCGSPLVSTRDGFIVGIHSASNFTNTNNYFTSVPKNFMELLTNQEAQQWVSGWRLNADSVLWGGHKVFMVKPEEPFQPVKEATQL

Variants of: B1
Assay: raw area under fraction-flipped curve 0-4 h after induction (AUC4h, not background-subtracted), DNA-recorder readout of cleavage of the substrate (dimensionless); higher = more cleavage of the substrate by the protease variant
Settings: temperature: 34 °C; time window: 0-4 h after rhamnose induction
Procedure: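 In vivo DNA recorder in E. coli TOP10(DE3) ΔrhaA at 34 °C. Each TEVp single-site mutant (parent TEVp 0) is paired with a single-site variant of the 7-mer TEVs (canonical ENLYFQ|S). The substrate sits between flexible linkers in a Bxb1-sfGFP-TEVs-SsrA fusion, so cleavage stabilises Bxb1 and speeds flipping of a recombination array, read by NGS. The value is the raw area under the fraction-flipped curve over 0-4 h after rhamnose induction (AUC4h), with ≥20 reads per time point. It is not background-subtracted; inactive controls average about 0.047.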
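Further: Bxb1 expression induced with 0.2% (w/v) L-rhamnose at OD600 near 0.5, cultures sampled hourly, flipped fraction per protease–substrate barcode pair counted by paired-end Illumina sequencing.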

| Variant | area with substrate ENLYFQA | area with substrate ENLYFQC | area with substrate ENLYFQF | area with substrate ENLYFQG | area with substrate ENLYFQH | area with substrate ENLYFQI | area with substrate ENLYFQL | area with substrate ENLYFQN | area with substrate ENLYFQQ | area with substrate ENLYFQR | area with substrate ENLYFQS | area with substrate ENLYFQT | area with substrate ENLYFQW | area with substrate ENLYFQY | area with substrate ENLYFQE | area with substrate ENLYFQK | area with substrate ENLYFQM | area with substrate ENLYFQV | area with substrate ENLYFQD | area with substrate ENLYFQP |
| --- | --- | --- | --- | --- | --- | --- | --- | --- | --- | --- | --- | --- | --- | --- | --- | --- | --- | --- | --- | --- |
| V229S | 0.0872 | 0.118 | 0.0819 | 0.114 | 0.0924 | 0.0469 | 0.0711 | 0.0699 | 0.0867 | 0.0443 | 0.105 | 0.072 | 0.0706 | 0.101 |  |  |  |  |  |  |
| L73N | 0.0538 | 0.0679 |  | 0.0684 | 0.0598 |  |  | 0.0472 |  | 0.0461 | 0.0576 | 0.0488 | 0.0619 | 0.037 | 0.0538 | 0.0587 | 0.0421 | 0.0683 |  |  |
| K100C | 0.0899 | 0.102 |  | 0.0974 |  |  | 0.0535 | 0.0699 |  | 0.069 | 0.106 | 0.0708 | 0.0575 | 0.0841 | 0.0663 |  | 0.103 | 0.0584 | 0.0464 | 0.0562 |
| E3T | 0.157 | 0.129 |  |  |  | 0.0492 | 0.0557 | 0.0795 |  | 0.0649 | 0.137 | 0.0627 | 0.0682 |  |  |  |  |  |  |  |
| V157Q | 0.0706 | 0.0756 | 0.0585 | 0.0735 |  | 0.0545 |  |  | 0.041 |  | 0.0783 | 0.074 | 0.0573 |  | 0.052 | 0.0494 |  |  |  |  |
| V58N | 0.101 |  |  | 0.0706 | 0.0598 |  |  | 0.0635 | 0.0643 | 0.0404 | 0.0553 | 0.0441 |  | 0.0468 |  |  |  |  |  |  |
| Q197T | 0.0959 |  | 0.0486 | 0.0899 |  |  |  |  |  | 0.0474 | 0.105 |  | 0.0794 |  |  | 0.0628 | 0.0642 |  |  |  |
| F101C | 0.0693 | 0.0825 |  |  | 0.0615 | 0.054 | 0.0514 | 0.0572 |  | 0.057 | 0.076 | 0.0547 | 0.0556 |  | 0.0477 | 0.0592 | 0.0518 | 0.0307 | 0.0662 |  |
| I84R | 0.0528 | 0.0523 |  |  |  | 0.0498 | 0.0602 | 0.053 | 0.0284 | 0.0536 | 0.061 | 0.054 | 0.0596 | 0.0324 |  | 0.0555 | 0.0559 |  | 0.0612 |  |
| E3L | 0.0692 | 0.0554 |  | 0.0744 |  | 0.0592 | 0.0596 | 0.0569 |  |  | 0.0635 | 0.0779 | 0.0593 | 0.0574 |  | 0.0718 | 0.0582 | 0.0138 | 0.0851 | 0.0611 |
| K90N | 0.101 | 0.102 |  |  |  |  | 0.0578 |  |  | 0.0597 | 0.0974 |  | 0.0663 |  |  | 0.0667 | 0.0861 | 0.0548 |  |  |
| V165Y | 0.0292 |  | 0.0494 | 0.0208 | 0.067 | 0.0489 |  | 0.0403 | 0.0498 | 0.0518 | 0.0524 | 0.054 | 0.0575 | 0.0433 |  | 0.0419 |  | 0.0477 |  | 0.0504 |
| L77Q | 0.0697 | 0.042 |  | 0.0639 | 0.0397 | 0.0426 | 0.0564 |  | 0.0587 | 0.0437 | 0.0644 | 0.0636 | 0.0705 |  |  | 0.0595 |  | 0.0511 | 0.0625 | 0.0496 |
| P89M | 0.0791 | 0.0959 | 0.0682 | 0.0711 | 0.059 | 0.076 |  | 0.0607 | 0.057 | 0.0408 | 0.0795 | 0.0411 |  | 0.0578 |  | 0.0569 | 0.0673 |  |  | 0.0732 |
| F133I | 0.109 | 0.126 | 0.0904 | 0.112 |  |  |  |  |  | 0.0517 | 0.106 |  |  |  | 0.0556 |  | 0.0727 | 0.063 | 0.0827 | 0.0391 |
| F95C | 0.089 | 0.098 |  | 0.108 |  |  | 0.0597 | 0.0601 |  |  | 0.0844 |  |  | 0.0544 |  |  |  |  |  |  |
| F49W | 0.0951 | 0.106 |  | 0.0866 | 0.0712 | 0.0596 | 0.0642 | 0.0876 |  | 0.122 | 0.0961 | 0.0776 | 0.0529 | 0.0728 |  | 0.0697 | 0.0877 |  | 0.088 | 0.066 |
| D79P | 0.0924 | 0.0765 |  |  |  | 0.057 |  |  |  | 0.0679 | 0.104 |  | 0.0722 |  |  |  |  |  |  |  |
| S158P | 0.0508 | 0.0513 |  | 0.0652 |  | 0.0451 | 0.0309 | 0.0453 | 0.0592 | 0.0549 | 0.0512 | 0.0553 | 0.0769 | 0.0542 |  | 0.0519 | 0.0628 | 0.0555 | 0.0443 | 0.0373 |
| K148H | 0.0744 | 0.0977 | 0.0686 | 0.0945 | 0.0846 | 0.0525 | 0.0924 | 0.068 |  |  | 0.0827 | 0.0593 | 0.035 | 0.0729 |  | 0.0756 |  |  |  |  |
| S158F |  | 0.0523 |  | 0.0498 | 0.0527 |  | 0.0348 |  |  |  | 0.0518 | 0.0602 | 0.0495 | 0.0613 |  | 0.0509 |  |  | 0.0564 |  |
| P93V |  | 0.0944 |  | 0.102 |  |  | 0.0496 |  |  | 0.0518 | 0.104 | 0.0677 | 0.0599 |  |  | 0.0555 |  |  | 0.0403 |  |
| K221G |  | 0.101 | 0.0554 |  | 0.0488 | 0.0506 |  | 0.0737 | 0.0591 |  | 0.0949 |  |  | 0.0411 |  | 0.0676 | 0.0543 | 0.0608 | 0.0139 | 0.0354 |
| K230Q |  | 0.112 | 0.0863 |  | 0.0811 | 0.0584 |  | 0.0693 | 0.0672 |  | 0.0972 | 0.0584 | 0.0671 | 0.0852 | 0.0793 | 0.0612 | 0.0833 | 0.0589 | 0.0563 |  |
| V67F |  | 0.0958 | 0.0818 |  |  | 0.0636 | 0.0454 | 0.076 |  | 0.0638 | 0.0937 | 0.0586 | 0.0862 | 0.0923 |  | 0.0748 | 0.0878 | 0.0604 | 0.0624 |  |
| R87A |  | 0.0993 |  | 0.0885 |  |  | 0.0611 |  | 0.069 | 0.0584 | 0.101 |  |  |  |  |  | 0.0812 |  | 0.0864 | 0.054 |
| Q118P |  | 0.114 |  | 0.0835 |  | 0.0887 | 0.0552 | 0.0847 |  | 0.0574 | 0.109 |  |  |  |  | 0.035 | 0.102 | 0.0421 | 0.106 | 0.0571 |
| F6G |  | 0.115 |  |  | 0.0773 |  | 0.0448 |  | 0.0689 | 0.0733 | 0.0977 |  |  |  |  | 0.0733 |  |  | 0.0733 |  |
| T30P |  | 0.0923 | 0.0756 |  | 0.0905 |  | 0.0537 |  |  | 0.0669 | 0.0893 | 0.0718 |  | 0.0409 |  |  |  |  | 0.0621 |  |
